# PMC4336329 (PLoS ONE, 2015)
# In all, about 310,000 compounds went through this assay and about 14,000 (4.5%) showed an effect of 50% or more. Effects have a minus sign here. The list shows a part of the results.
# Biological target: human ether-à-go-go-related gene (hERG) potassium channel (human, UniProt Q12809)
# Experiment: primary screen, population patch clamp on CHO cells stably expressing hERG
# 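Further: peak tail current of the secondary pulse compared with the same well before compound.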
# human ether-à-go-go-related gene (hERG) potassium channel, sequence (Q12809 whole entry, looked up): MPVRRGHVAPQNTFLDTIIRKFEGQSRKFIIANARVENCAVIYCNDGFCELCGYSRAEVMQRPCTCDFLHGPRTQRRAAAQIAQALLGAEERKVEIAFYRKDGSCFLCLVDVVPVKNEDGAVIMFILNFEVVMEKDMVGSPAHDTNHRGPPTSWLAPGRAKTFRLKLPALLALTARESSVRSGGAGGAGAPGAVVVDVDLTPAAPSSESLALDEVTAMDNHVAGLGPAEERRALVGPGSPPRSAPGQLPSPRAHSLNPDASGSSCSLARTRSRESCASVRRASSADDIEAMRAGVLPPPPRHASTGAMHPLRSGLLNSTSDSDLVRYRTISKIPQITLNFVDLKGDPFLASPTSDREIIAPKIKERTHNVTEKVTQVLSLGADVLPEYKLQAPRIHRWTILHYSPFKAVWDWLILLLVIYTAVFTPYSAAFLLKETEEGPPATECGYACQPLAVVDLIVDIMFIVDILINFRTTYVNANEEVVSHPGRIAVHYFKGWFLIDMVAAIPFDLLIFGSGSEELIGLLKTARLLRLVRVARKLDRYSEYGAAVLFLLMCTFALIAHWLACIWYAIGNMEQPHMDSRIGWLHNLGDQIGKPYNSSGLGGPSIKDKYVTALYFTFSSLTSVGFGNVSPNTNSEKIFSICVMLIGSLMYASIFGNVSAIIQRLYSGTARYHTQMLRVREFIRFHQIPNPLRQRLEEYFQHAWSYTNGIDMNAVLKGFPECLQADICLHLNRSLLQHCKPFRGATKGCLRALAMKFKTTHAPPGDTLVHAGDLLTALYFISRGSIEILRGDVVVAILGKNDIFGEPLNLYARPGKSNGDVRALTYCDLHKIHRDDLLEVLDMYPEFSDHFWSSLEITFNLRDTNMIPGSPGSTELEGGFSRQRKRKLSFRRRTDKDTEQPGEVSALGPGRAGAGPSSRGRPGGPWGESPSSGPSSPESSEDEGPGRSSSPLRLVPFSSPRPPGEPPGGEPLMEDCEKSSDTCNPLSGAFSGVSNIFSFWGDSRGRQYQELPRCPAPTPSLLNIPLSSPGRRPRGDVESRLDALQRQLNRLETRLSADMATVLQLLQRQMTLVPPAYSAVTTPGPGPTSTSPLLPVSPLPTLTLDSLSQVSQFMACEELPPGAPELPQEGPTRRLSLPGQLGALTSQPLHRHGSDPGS
row,SMILES,"hERG current change (%, negative = inhibition) at 10uM [%]"
1,CC1Oc2ccccc2N(CC(=O)NC2CCCC2)C1=O (stereo not shown),11.7
2,CCCS(=O)(=O)N1CCN(C(=O)c2cccc(OC)c2)CC1,4
3,O=C(Nc1ccc2c(c1)OCO2)N1CCN(c2ccccc2Cl)CC1,-32.3
4,Cc1[nH]c2ccc(O)cc2c1CCN.O=C([O-])/C=C\C(=O)[O-],11.2
5,CCCc1cc(NCCN(C)C)n2c(nc3ccccc32)c1C#N,-7.73
6,COc1ccc(C2N=C(Nc3ccc(C)cc3)Nc3nc(C)cc(=O)n32)cc1 (stereo not shown),1.81
7,O=C(CSc1nnc(-c2ccccc2)c(-c2ccccc2)n1)NCc1ccco1,-55.5
8,NNC(=O)c1ccc(CN2C(=O)c3cccc4cccc2c34)cc1,-8.58
9,S=C(Nc1ccccc1)N1CCN(C/C=C/c2ccccc2)CC1,-8.71
10,CCCS(=O)(=O)N1CCN(Cc2ccncc2)CC1.O=C(O)C(=O)O,10.8
11,CCOC(=O)C1(Cc2ccccc2C)CCCN(S(=O)(=O)c2cccnc2)C1 (stereo not shown),-5.1
12,Cn1cccc1/C=C1\C(=O)NC(=O)N(Cc2ccccc2)C1=O,1.65
13,COc1ccc(/C=C(/NC(=O)c2ccccc2)c2nc3ccccc3[nH]2)cc1OC,-12.5
14,Cc1cccc(NC(=O)CSC(N)=O)c1C,16.9
15,O=C(NC(=S)Nc1ccc(Cl)c(C(=O)O)c1)c1cncc(Br)c1,20.1
16,CCOC(=O)c1ccc(CNC(=O)c2cc(COc3ccccc3SC)on2)o1,1.07
17,CCCCn1c(SCC(=O)OC)nc2c1c(=O)n(C)c(=O)n2C,-5.71
18,COCC(=O)N(c1ccc(C(C)C)cc1)C1C=CS(=O)(=O)C1 (stereo not shown),15.9
19,O=C(O)C1Cc2ccccc2CN1C(=O)COc1ccc(Cl)cc1Cl (stereo not shown),15.5
20,CCOc1cc(CNc2ccc(N3CCOCC3)cc2)cc(Br)c1OCC,11.3
21,CCOc1ccc(CC(=O)NNC(=O)NC2CCCCC2)cc1,5.67
22,CN(C)c1cc[n+](CC(=O)N2c3ccccc3Sc3ccccc32)cc1.[Cl-],6.95

row,SMILES,"hERG current change (%, negative = inhibition) at 10uM [%]"
1,COc1cc(SC#N)ccc1N=Cc1c(C)[nH]n(-c2ccc(C)cc2C)c1=O,20.8
2,Cc1ccc(C(=O)COC(=O)CNC(=O)c2ccc(N3C(=O)c4ccccc4C3=O)cc2)cc1C,10.7
3,NN/C(=C\[N+](=O)[O-])Nc1ccc(Cl)cc1,13.6
4,CC1=CC(C)(C)N(C(=O)CN2C(=O)c3ccccc3C2=O)c2ccccc21,0.597
5,NC[C@H](O)c1ccc(O)c(O)c1.O.O=C(O)C(O)C(O)C(=O)O,10.3
6,CCOc1ccc(S(=O)(=O)N2CCCC(C(=O)Nc3ccccc3)C2)cc1 (stereo not shown),13.4
7,Cc1ccccc1C(=O)Nc1ccc(C(=O)O)cc1NC(=O)c1ccccc1C,17
8,CCOc1ccc(-c2csc(NC(=O)c3cccc(N4C(=O)CCC4=O)c3)n2)cc1,0.594
9,CC1CCN(c2oc(-c3cccc4ccccc34)nc2C#N)CC1,7.37
10,Cc1ccc(OCC(=O)N2CCN(C(=O)Cc3ccccc3)CC2)cc1,-38.4
11,CCOc1ccccc1OCC(=O)OCC(=O)c1c(N)n(CC(C)C)c(=O)n(C)c1=O,-67.5
12,Cc1cccc(-c2ncc(S(=O)(=O)C(C)(C)C)c(N)n2)c1,12.8
13,O=C(Nc1ccnc(-c2ccncc2)n1)c1cccs1,-16.8
14,COc1ccccc1/C=C/C=c1\sc2nc(=O)c(Cc3ccccc3)nn2c1=O,7.31
15,O=C1C=C(Nc2cccc(O)c2)CC(c2ccco2)C1 (stereo not shown),-11.1
16,N#Cc1cccc(C(=O)Nc2cccc(S(=O)(=O)N3CCCC3)c2)c1,2.83
17,O=S(=O)(Nc1ccc(S(=O)(=O)Nc2cccc3ccccc23)cc1)c1ccccc1,-16.7
18,Cc1cc(NC(=O)c2cnn3cccnc23)nn1CC(=O)Nc1cccnc1,-3.28
19,O=C(NC(=S)NNC(=O)c1ccccc1[N+](=O)[O-])c1ccc(Br)cc1,7.59
20,CCOC(=O)c1ccc(NC(=S)NCCCN2CCN(C3CCCCC3)CC2)cc1,-53.7
21,Cc1ccc(S(=O)(=O)N[C@@H](CC(C)C)C(=O)N2CCC(C(=O)N[C@@H](Cc3ccccc3)C(=O)O)CC2)cc1,16
22,Cc1onc(-c2ccccc2Cl)c1C(=O)NC(=S)Nc1ccccc1C(N)=O,15.7

row,SMILES,"hERG current change (%, negative = inhibition) at 10uM [%]"
1,S=C1CCC(c2ccc(Br)cc2)=NN1c1ccccc1,6.63
2,O=C(Nc1ccc(Cl)cc1)N(CCCN1CCOCC1)Cc1cccs1,-70.7
3,CCCCn1c(N)c(N(CCOC)C(=O)CSc2ccc([N+](=O)[O-])cc2)c(=O)[nH]c1=O,-22.7
4,Cc1ccc(C)c(NC(=O)c2cc(-c3cc(C)c(C)cc3O)n[nH]2)c1,11.6
5,O=C(NC1CCCCC1)C(=O)c1c[nH]c2ccccc12,3.23
6,COC(=O)c1ccc(NC(=O)CSc2nnc(C)n2-c2ccccc2)cc1,-2.35
7,O=C(COc1ccccc1)Nc1ccccc1N1CCCCC1,2.27
8,c1coc(-c2ncc[nH]2)c1,12.9
9,CC(=O)c1ccc(N2CCN(CC(=O)N(C3CC3)C3CCS(=O)(=O)C3)CC2)c(F)c1 (stereo not shown),-12
10,O=C1c2ccccc2C(O)N1c1cccnc1 (stereo not shown),16.5
11,Cc1ccc(OCc2csc(N)n2)cc1,-0.946
12,Cc1cccc(NC(=O)NNC(=O)c2nn(C)cc2Br)c1,-7.1
13,COc1cc2c(ccc3cc(OC)c(OC)c(O)c32)cc1O,13.4
14,CC(C)(C)NC(=O)c1ccc(NC(=O)CSc2ccccc2)cc1,8.17
15,CC1=NN(Cc2ccccc2)C(=O)C1C(c1ccc(Cl)cc1)C(C#N)C#N (stereo not shown),20.5
16,O=C(O)c1cccc(N/N=C/c2ccc(OC(F)(F)F)cc2)c1,15.5
17,CCCCn1c(C)cc(/C=C(\C#N)C(=O)O)c1C,-80
18,Cc1occc1C(=O)Nc1cc(=O)n(C)c(=O)n1C,13.2
19,O=C(Cc1ccccc1)c1c[nH]c(C(=O)NCc2ccncc2)c1,7.06
20,CCn1c(SCC(=O)N/N=C/c2ccccc2OCC(=O)O)nnc1-c1ccc(C(C)(C)C)cc1,12.5
21,CC(C)c1ccc(NC(=O)N2CCC(c3nc4ccccc4o3)CC2)cc1,-30.7
22,CC(C)NC(=O)C(Sc1ccccc1)c1ccccc1 (stereo not shown),11.3

row,SMILES,"hERG current change (%, negative = inhibition) at 10uM [%]"
1,COc1ncnc2c1N[C@@](C)(O)c1c(F)c(F)c(F)c(F)c1S2,10.8
2,CN1CCN(CC(O)(c2ccc(Cl)cc2)c2ccc(Cl)cc2)CC1,-73.3
3,COc1ccc(NC(=O)CSCC(=O)Nc2ccc(S(=O)(=O)N3CCCCC3)cc2)cc1,-35.7
4,N#CC(=C1CCCC1)c1nc(-c2ccccc2)cs1,1.02
5,COc1ccc(N2CCN(CCNC(=O)CCC(=O)NNc3nc4ccccc4c4nc(C)nn34)CC2)cc1,4.9
6,Cc1cccc(OCC(=O)N2CCc3ccccc3C2)c1,0.0245
7,Cc1cc(NC(=O)CC2CCCC2)n(-c2nc3ccccc3[nH]2)n1,-9.55
8,C=CCN1CC2CC3(COc4cc(C)cc(C)c4)C=CC2(O3)C1=O (stereo not shown),1.91
9,CC(=O)Nc1ccc(/C=C/C(=O)c2ccccc2)cc1,9.09
10,CC1COc2ccccc2N1C(=O)c1cccnc1Cl (stereo not shown),15.1
11,CCN1CCN(c2c(Cl)cccc2NC(=O)c2ccc([N+](=O)[O-])cc2)CC1,-72
12,c1ccc(OCc2nn3c(-c4ccccn4)nnc3s2)cc1,-9.49
13,COc1ccc(-c2nc(NC(=O)C3=NN(c4cccc(C)c4)C(=O)CC3)sc2C)cc1,0.982
14,O=C(/C=C/NNC(=O)c1ccccc1)c1ccc([N+](=O)[O-])cc1,4.38
15,COc1ccc(NC(=S)NCCSc2ccc(C)cc2)c(OC)c1,5.2
16,Cc1ccc(OCc2cc(C(=O)NC3CCc4ccccc43)no2)cn1 (stereo not shown),-10.4
17,CCOc1ccc(S(=O)(=O)Nc2ccc(C(=O)N(C)CC(=O)Nc3ccc(OC)cc3)cc2)cc1,14.2
18,O=C1NC(c2ccc(Br)cc2)Nc2ccccc21 (stereo not shown),-8.81
19,COc1ccc(CCn2c(O)c(C=NCc3cccnc3)c(=O)[nH]c2=O)cc1OC,3.63
20,COC(=O)[C@H]1C[C@@H]1[C@H](NS(=O)(=O)c1ccc2ccccc2c1)c1ccccc1,6.23
21,Cc1cccc(NC(=S)N(C)C)c1C,-6.21
22,O=C(COc1ccccc1)Nc1cccc(-c2cn3cccnc3n2)c1,-23.5
